Reference: article PMC9911399, “Two distinct binding modes provide the RNA-binding protein RbFox with extraordinary sequence specificity”
Positions count from the first letter of the chain named. This is one part of the list.

T1: RBFOX1 RRM RbFoxmut (Fox-RRM*) (Homo sapiens, UniProt Q9NWB1 109-208, R118D;E147R;N151S;E152T)
T1 sequence: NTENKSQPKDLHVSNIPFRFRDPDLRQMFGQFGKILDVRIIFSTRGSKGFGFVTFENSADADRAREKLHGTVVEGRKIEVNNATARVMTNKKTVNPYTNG

B1: GCACUAU (DNA:RNA)
RNA: GGGAGACCGGAAUUCAGAUUGUCCGCACUAUUUAAAUCCCGUCGUAGCCACCA
DNA 1: CAATCTGAATTCCGGTCTCCC
DNA 2: TGGTGGCTACGACGGGATT
B2: UUUUGAA (DNA:RNA)
RNA: B1 RNA with G25U, C26U, A27U, C28U, U29G, U31A
DNA 1: CAATCTGAATTCCGGTCTCCC
DNA 2: TGGTGGCTACGACGGGATT
B3: ACGAAUU (DNA:RNA)
RNA: B1 RNA with G25A, A27G, C28A, U29A, A30U
DNA 1: CAATCTGAATTCCGGTCTCCC
DNA 2: TGGTGGCTACGACGGGATT
B4: ACGCGGG (DNA:RNA)
RNA: B1 RNA with G25A, A27G, U29G, A30G, U31G
DNA 1: CAATCTGAATTCCGGTCTCCC
DNA 2: TGGTGGCTACGACGGGATT
B5: CUGUUGC (DNA:RNA)
RNA: B1 RNA with G25C, C26U, A27G, C28U, A30G, U31C
DNA 1: CAATCTGAATTCCGGTCTCCC
DNA 2: TGGTGGCTACGACGGGATT
B6: CUAGGAG (DNA:RNA)
RNA: B1 RNA with G25C, C26U, C28G, U29G, U31G
DNA 1: CAATCTGAATTCCGGTCTCCC
DNA 2: TGGTGGCTACGACGGGATT
B7: AGCAACG (DNA:RNA)
RNA: GGGAGACCGGAAUUCAGAUUGUCCAGCAACGUUAAAUCCCGUCGUAGCCACCA
DNA 1: CAATCTGAATTCCGGTCTCCC
DNA 2: TGGTGGCTACGACGGGATT
B8: GUAAGAA (DNA:RNA)
RNA: B1 RNA with C26U, C28A, U29G, U31A
DNA 1: CAATCTGAATTCCGGTCTCCC
DNA 2: TGGTGGCTACGACGGGATT
B9: CCGCCAG (DNA:RNA)
RNA: B1 RNA with G25C, A27G, U29C, U31G
DNA 1: CAATCTGAATTCCGGTCTCCC
DNA 2: TGGTGGCTACGACGGGATT
B10: ACAGGCA (DNA:RNA)
RNA: B7 RNA with G26C, C27A, A28G, A29G, G31A
DNA 1: CAATCTGAATTCCGGTCTCCC
DNA 2: TGGTGGCTACGACGGGATT
B11: GCGGAUA (DNA:RNA)
RNA: B1 RNA with A27G, C28G, U29A, A30U, U31A
DNA 1: CAATCTGAATTCCGGTCTCCC
DNA 2: TGGTGGCTACGACGGGATT
B12: ACGGGUG (DNA:RNA)
RNA: B7 RNA with G26C, C27G, A28G, A29G, C30U
DNA 1: CAATCTGAATTCCGGTCTCCC
DNA 2: TGGTGGCTACGACGGGATT
B13: CCACCCC (DNA:RNA)
RNA: B1 RNA with G25C, U29C, A30C, U31C
DNA 1: CAATCTGAATTCCGGTCTCCC
DNA 2: TGGTGGCTACGACGGGATT
B14: CAUGGCU (DNA:RNA)
RNA: B7 RNA with A25C, G26A, C27U, A28G, A29G, G31U
DNA 1: CAATCTGAATTCCGGTCTCCC
DNA 2: TGGTGGCTACGACGGGATT
B15: UAAAUUG (DNA:RNA)
RNA: B7 RNA with A25U, G26A, C27A, A29U, C30U
DNA 1: CAATCTGAATTCCGGTCTCCC
DNA 2: TGGTGGCTACGACGGGATT
B16: GUCAGCU (DNA:RNA)
RNA: B7 RNA with A25G, G26U, A29G, G31U
DNA 1: CAATCTGAATTCCGGTCTCCC
DNA 2: TGGTGGCTACGACGGGATT
B17: GACAGAU (DNA:RNA)
RNA: B1 RNA with C26A, A27C, C28A, U29G
DNA 1: CAATCTGAATTCCGGTCTCCC
DNA 2: TGGTGGCTACGACGGGATT
B18: UCGAACC (DNA:RNA)
RNA: B7 RNA with A25U, G26C, C27G, G31C
DNA 1: CAATCTGAATTCCGGTCTCCC
DNA 2: TGGTGGCTACGACGGGATT
B19: GUGAUCC (DNA:RNA)
RNA: B7 RNA with A25G, G26U, C27G, A29U, G31C
DNA 1: CAATCTGAATTCCGGTCTCCC
DNA 2: TGGTGGCTACGACGGGATT
B20: AUACUGU (DNA:RNA)
RNA: B1 RNA with G25A, C26U, A30G
DNA 1: CAATCTGAATTCCGGTCTCCC
DNA 2: TGGTGGCTACGACGGGATT

target: T1, RBFOX1 RRM RbFoxmut (Fox-RRM*); test: EMSA; HiTS-Eq, 1 nM pool, 10 min; buffer printed only for the single-RNA assays: 10 mM Tris pH 7.5, 150 mM NaCl, 3.4 mM EDTA, 0.001% NP-40, 30 C; settings: tags: His6 N-terminal (pET28a); label: 5' 32P
Summary of the method: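 Purified RbFox RRM (wild type or mutant) was equilibrated for 10 min in 50 µL with 1 nM of a 5′-radiolabelled pool of RNA with 7 randomized nucleotides, its flanks annealed to DNA oligonucleotides, across increasing protein concentrations. Free RNA was separated by 8% native PAGE, excised, reverse-transcribed, PCR-barcoded and sequenced on an Illumina HiSeq 2500. Relative association constants came from read-count changes of each variant against the control reaction, normalised to the cognate motif.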

Compared with B1, B2 is lower in binding signal: 0.0921 KA relative to UGCAUGU for the first, 0.0728 KA relative to UGCAUGU for the second.

First: B3
Second: B4
The binding signal of the first is higher: 0.134 KA relative to UGCAUGU for the first, 0.109 KA relative to UGCAUGU for the second.

First: B5
Second: B6
The binding signal of the first is higher: 0.132 KA relative to UGCAUGU for the first, 0.108 KA relative to UGCAUGU for the second.

First: B7
Second: B8
The binding signal of the first is higher: 0.106 KA relative to UGCAUGU for the first, 0.0745 KA relative to UGCAUGU for the second.

Compared with B9, B10 is higher in binding signal: 0.101 KA relative to UGCAUGU for the first, 0.126 KA relative to UGCAUGU for the second.

First: B11
Second: B12
The binding signal of the first is lower: 0.0859 KA relative to UGCAUGU for the first, 0.153 KA relative to UGCAUGU for the second.

Compared with B13, B14 is higher in binding signal: 0.0603 KA relative to UGCAUGU for the first, 0.107 KA relative to UGCAUGU for the second.

First: B15
Second: B16
The binding signal of the first is higher: 0.0911 KA relative to UGCAUGU for the first, 0.076 KA relative to UGCAUGU for the second.

First: B17
Second: B18
The binding signal of the first is lower: 0.0912 KA relative to UGCAUGU for the first, 0.125 KA relative to UGCAUGU for the second.

First: B19
Second: B20
The binding signal of the first is higher: 0.11 KA relative to UGCAUGU for the first, 0.0933 KA relative to UGCAUGU for the second.
